The supplement of paper PMC12632987
Whole data set: some 2,300 sequences, median “median log2 fold change of GCK-ALFA target abundance (FLAG IP / Myc IP barcode read proportion)” near 0.095, cut for the lowest 2% near -0.47. Some of the results follow.

B1: LC3A_3_1692 (protein)
chain: MEELVKKVLEELKKIGADEETLKAAKELLDELKEKGYEKAIEELLKELKKLKNADSEILKDMFEDLLYKVKNENLSEEEVVELIKEEARVAKNEQEIEEL
B2: LC3A_3_1856 (protein)
chain: MDEIIAEALAYLKELGRSEETIAAAKELLEALKKKGFLEAAKTFLEELKKLENVSDEDLKEMFLELLKAVEEKDLNEEEAIELIKSEARVLLNAEEIEEL
B3: LC3A_28_832 (protein)
chain: SSVDARIAAFQAEVDAAVAAGVSQTFVVTITSEDTLEEVKKIMDAVREAAGKAASIPNQSIVIDLDGKIEQEKLDAILDAADEIEKEYPNVSVIIALPEE
B4: LC3A_free_8_2533 (protein)
chain: KREEFVNKALELLDEFEEEIRKKAKELGLDELDILDLELLIGSLKIEVVELRDKPMEEILKTIEEGLEEIIEEAKELSEELAEKVEELAEEILEELKEMM
B5: LC3A_28_1218 (protein)
chain: SHVEEQLEKARKEAEAALAKGEEALIEVTIPSTFTVEDVKKLMEGLKEIVEEAKDLPRISIIISFEAGVSQEVINAAAEGADEIEKKFPNVTVIIALDEE
B6: LC3A_28_882 (protein)
chain: SKALESAEKALEEVKKAVEAGDKEPLVLEVEAPSDEENTEKFLKLLEELAKEASKLPGVTIIVNIDSSVSQELRDKIIDKAEELEKKYPNVTIIIALPED
B7: LC3A_3_1793 (protein)
chain: AQARIDALLAELRAAGKSDETLAAVRAAATALADRGYEEALATFIEELRELIDAPDEILLDLAEEVLRLIEEEDLDEEELTERIKELAELARNEAEIIEL
B8: LC3A_28_1335 (protein)
chain: SLAEEIIEEAKKKLREVAEKGEPEVIEIEIPGSVTPEEARRIMDAILETAKELKLPKGTAIVINLDADVSQEVIDVVAEGAERIEEEVPGVTVIIALDEN
B9: LC3A_28_1076 (protein)
chain: SSVEEENKKLIEEAKKAREKGEPVVITVTVTDEDTEEDIKLKLETIREIGEILSEVKDAAIIIDLIGEKAKAHLPEFAKVAEEIEEKYPNVTVIIALDEE
B10: LC3A_3_1632 (protein)
chain: MEEEEEEALEALREAGASEETLEAFRETLKALKERGFYEAAKTLIEETRELADLPSEIRLDFLEDVLAIIKTEDLDEEEVIEEIKRLARIARSESEIIEL
B11: LC3A_28_1307 (protein)
chain: SPLRERFEAAIAEVRAAAAAGEPVVVTVDISAEELEEHLEEILELLDRLGEEASKAPGATIIVDVDESTKPENLKKLGERLEEIERRYPNVTVIIAIRDN
B12: LC3A_3_1575 (protein)
chain: MEERLREALERLREAGFSEEVIEAAERALRALLEKGAEEAAEILLETLLKLKDAPDELLIDLLEDVLRLAETDKGSLEELTEKVKELATTYLNESEIIEL
B13: LC3A_132_242 (protein)
chain: MEEKKEKLRKELEELLKKLKENIDNEEKVKELVKEIEELLKKAEKELSPEDALEIFEEVADRLDEIAEEAEKAGKEEVARTIENASMYADGLAIEQELKL
B14: LC3A_45_1959 (protein)
chain: MAVAEVLVLVPKEEFDKVLAIIERQVERINKERGLKASIDEEAVAKARKEAEENGEGLLTVTVESEDLDEALDAADEIADEIERESSPSVAVAIAYEEEP
B15: LC3A_28_1053 (protein)
chain: SAIDKQLEAALAEARAAAAAGEEALITLTIPENATEEDVEKVLATIREIAEITKDLPATTIIVDVDNKNQEEVTKKIDEVGEELAKKYPNVTVIIALSEN
B16: LC3A_free_39_2253 (protein)
chain: SDAEMEAIAAEAKAQLPAEAHPAVDRLLAAAKELGLSPETVKAFMDALLQAHSWGVDIAEIVETGIRALRELKAEGLSEEEITRLVVLEMELTAGSQYLE
B17: LC3A_28_685 (protein)
chain: SKTEEDLKKALEEAEEALKKGEPTVVRINVYGDVTEEELEKVLKALEEIAKILNKIPGSAIIVDIDADVDEEFEDKIIDKAEELEKKYPNVTIIIALEER
B18: LC3A_28_777 (protein)
chain: MDIEEEIEKAIEEAKKAKERGEEAVITIEVPDGATEEDIEKVIEGMEEIAEINKDMESTAIIIDIDSGVKQEHIDKLIDKGEEIEEKYPNVTVIFALDED
B19: LC3A_28_907 (protein)
chain: GSSLEEAKKALEEVEKKVKEGDEEPLVLEITAPSTEEDVEKFIELLEKLAKEADKLKGVSIIIDIDESVSEENKNKIIDKAEELEKKYPNVTVIIALPES
B20: LC3A_3_1532 (protein)
chain: LDEEVKETLELLKKAGASEEALEAFKEAAEELKKRGYENALKTLIEEAKELLNVPNDLFLDFFKEVLELIKNSDLSEEELVEKIKEIAKTTKNEAEIEEL
B21: LC3A_102_153 (protein)
chain: SAEEEIEKKKKEALEEIKKLIEKEKSLTEEEKAEALKLAKEALEAAIENAKTEAQHGFVDLVAEDKLEEALEKLEKISPEIAKKTKEKIEELKKLIKELA
B22: LC3A_28_770 (protein)
chain: MDIEEEVARAIEEAKEAVARGEETVITLTVPKGATEEDIEKAIEGLEEIAEIVKDMPSQSIIIDVESGVAQENLDKLMDKAEEIEKKYPNVTVIIALDED
B23: LC3A_3_1766 (protein)
chain: MEEKVEEVRERLKELGADEETIETAAEAVRLLLERGLEETAEEFVETLEELLKKSKELAADLARDVLEILLTSDLSPEEIAEEVREEIRNYRLEAEIEEL
B24: LC3A_132_240 (protein)
chain: SEELYEKLRKEAEELLKKIRENLDDLEKVKELVAKLEELLDRALEELTPEEVEELAREVAERLEEIREEAEKAGKEEVASLLENAAMYADGIAIEAELKL
B25: LC3A_147_505 (protein)
chain: VKLEVDIDIITKDAVEEVKKFVEEVKKELEEKGFEVKVKIKVEKLDEKTYYIEIEIEVKAETKEEAEEAANYIIDRFEEFEEKNKDKILGSLISVEIIEE
B26: LC3A_28_955 (protein)
chain: SALEKQLEEVLKQAKEAAKAGKAEVFVIRVPGTADQEDIDRVIEAMYEIAELLKDIKGSAIIVEVDAGVAQEHIDRLVDAAEEIEEKYPNVTVIIALDED
B27: LC3A_free_26_2138 (protein)
chain: SDYIDIYLLDKALELLEEIAKELKKAGPEYEELAKKAEEAKKLIEKETLESLKEALKILEEMKKELKKLLDKDPEFMKKLLKKVEEAEKLVKEIIEIMES
B28: LC3A_free_2_2169 (protein)
chain: ARYRVVADVLGPAAGVAALMEVLAKHGLRVTVELEDGTVREGTAAEHAAYFRELAARGEEVLVRITFETDKETAEAVAEELEKVAEETGVALLIDIEKIA
B29: LC3A_free_39_2282 (protein)
chain: SPEEAKEAKERFLKLADSSSPETKELLLELLEIFKDDTEAIKKIVDALEEAKKEGADMLRIAKTALEIAKKLKAEGKSLEEIAEAVVQAIRDEINLQPID

molecular target: MAP1LC3A, Q9H492; assay: median log2 fold change of GCK-ALFA target abundance (FLAG IP / Myc IP barcode read proportion) (log2 ratio); each designed protein is fused to an ALFA-tag nanobody in HEK293 cells to bring the named protein to FLAG-tagged glucokinase (GCK); Myc marks an untargeted standard; higher = target protein stabilised (more abundant); settings: target protein: 3xFLAG-MCP-GCK-ALFA reporter; HEK293 landing pad (RPLP)
How it was run: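 Sequencing of reverse-transcribed, amplified circular RNA barcodes from anti-FLAG and anti-Myc immunoprecipitates provided the readout for an ALFA-nanobody-fused binder library recombined into HEK293 landing-pad cells. Those cells were induced with 2 μg mL^−1 doxycycline, transfected with a plasmid expressing a FLAG-tagged target and a Myc-tagged standard, and lysed after 48 h. Target abundance is the per-binder median log2 ratio of FLAG to Myc barcode read proportions. Only barcodes at a proportion of ≥10^−7 in both replicates and binders with ≥3 barcodes per replicate were kept, with a 10^−6 pseudocount added before the two replicates were pooled.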

| Binder | median log2 fold change |
| --- | --- |
| B1 | 0.26 |
| B2 | 0.361 |
| B3 | -0.0985 |
| B4 | -0.133 |
| B5 | 0.128 |
| B6 | -0.094 |
| B7 | 0.139 |
| B8 | -0.177 |
| B9 | 0.0639 |
| B10 | 0.0896 |
| B11 | 0.158 |
| B12 | 0.156 |
| B13 | -0.0828 |
| B14 | 0.00723 |
| B15 | -0.454 |
| B16 | 0.124 |
| B17 | -0.264 |
| B18 | -0.0931 |
| B19 | -0.387 |
| B20 | 0.249 |
| B21 | -0.137 |
| B22 | -0.192 |
| B23 | 0.0965 |
| B24 | -0.0623 |
| B25 | -0.448 |
| B26 | -0.106 |
| B27 | 0.0955 |
| B28 | 0.0356 |
| B29 | 0.308 |
